# Reference: the supplement of paper PMC10037445
# In all, about 2,900 compounds were measured (“NF-kB SEAP reporter activity, fold change vs agonist alone”: median about 0.99, highest 2% from about 2.6 on). The list shows a part of the results.
# Columns and labels:
# [1] = test system: RAW-Dual; test: NF-kB SEAP reporter activity, fold change vs agonist alone; cytotoxicity flag (confluency mask): not cytotoxic; higher = enhanced NF-kB activity
# Outline: (§1)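 Reporter activity is given as fold change relative to agonist-alone wells. To measure it, 50 nL of library stock was pin-tooled onto RAW-Dual macrophages (50,000 cells/well, DMEM, 384-well plates), a PRR agonist followed 1 h later, and cells stayed at 37 °C, 5% CO2. Twenty hours on, supernatant was assayed for IRF (QuantiLuc luminescence) and NF-κB (QuantiBlue, 620 nm absorbance), and wells under 70% of agonist-control IncuCyte confluency in both mask sets were marked cytotoxic.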
# [2] = test system: RAW-Dual; test: NF-kB SEAP reporter activity, fold change vs agonist alone; higher = enhanced NF-kB activity; details: library stock concentration (final ~1000-fold dilution): 10 mM
# Outline: as §1
# [3] = test system: RAW-Dual; test: NF-kB SEAP reporter activity, fold change vs agonist alone; cytotoxicity flag (confluency mask): cytotoxic (confluency <70% of control); higher = enhanced NF-kB activity
# Outline: as §1
# [4] = agonist: ODN 1826 (TLR9) 0.5 ug/mL
# [5] = agonist: Pam2CSK4 (TLR2/6) 0.1 ug/mL
# [6] = agonist: Pam3CSK4 (TLR2/1) 0.1 ug/mL
# [7] = cytotoxicity flag (confluency mask): not cytotoxic, agonist: Imiquimod (TLR7) […]
# [8] = cytotoxicity flag (confluency mask): not cytotoxic, agonist: MPLA (TLR4) […]
smiles,measurement,setting,value
COc1ccc(CCCOC(Cn2ccnc2)c2ccc(OC)cc2)cc1.Cl (stereo not given) (library stock concentration (final ~1000-fold dilution): 10 mM),NF-kB SEAP reporter activity,[1]; agonist: LPS (TLR4) 0.1 ug/mL,0.82
same,NF-kB SEAP reporter activity,[1]; [4],0.588
same,NF-kB SEAP reporter activity,[1]; [5],0.572
same,NF-kB SEAP reporter activity,[1]; [6],0.84
COc1ccc(CCCOC(Cn2ccnc2)c2ccc(OC)cc2)cc1.Cl (stereo not given),NF-kB SEAP reporter activity,[2]; [7],0.901
same,NF-kB SEAP reporter activity,[2]; [8],1.28
O=C(/C=C/c1ccc(O)cc1)c1ccccc1,NF-kB SEAP reporter activity,"[2]; cytotoxicity flag (confluency mask): cytotoxic (confluency <70% of control), agonist: Imiquimod (TLR7) […]",0.709
same,NF-kB SEAP reporter activity,"[2]; cytotoxicity flag (confluency mask): cytotoxic (confluency <70% of control), agonist: MPLA (TLR4) […]",0.589
O=C(/C=C/c1ccc(O)cc1)c1ccccc1 (library stock concentration (final ~1000-fold dilution): 10 mM),NF-kB SEAP reporter activity,[3]; agonist: LPS (TLR4) 0.1 ug/mL,0.377
same,NF-kB SEAP reporter activity,[3]; [4],0.42
same,NF-kB SEAP reporter activity,[3]; [5],0.469
same,NF-kB SEAP reporter activity,[3]; [6],0.612
CC(C)(C)NC(=O)c1cncn1C1CCN(c2ccc(-c3nnc(C(F)(F)F)o3)cn2)CC1 (library stock concentration (final ~1000-fold dilution): 10 mM),NF-kB SEAP reporter activity,[1]; agonist: LPS (TLR4) 0.1 ug/mL,6.27
same,NF-kB SEAP reporter activity,[1]; [4],3.15
same,NF-kB SEAP reporter activity,[1]; [6],2.84
O=c1ncnc2[nH][nH]cc1-2 (library stock concentration (final ~1000-fold dilution): 10 mM),NF-kB SEAP reporter activity,[1]; agonist: LPS (TLR4) 0.1 ug/mL,0.941
same,NF-kB SEAP reporter activity,[1]; [4],1.03
same,NF-kB SEAP reporter activity,[1]; [5],1.06
same,NF-kB SEAP reporter activity,[1]; [6],1.16
O=c1ncnc2[nH][nH]cc1-2,NF-kB SEAP reporter activity,[2]; [7],0.925
same,NF-kB SEAP reporter activity,[2]; [8],1.08
CC(C)NCCCn1c(Sc2cc3c(cc2I)OCO3)nc2c(N)ncnc21,NF-kB SEAP reporter activity,[2]; [7],0.153
same,NF-kB SEAP reporter activity,[2]; [8],0.524
CC(C)NCCCn1c(Sc2cc3c(cc2I)OCO3)nc2c(N)ncnc21 (library stock concentration (final ~1000-fold dilution): 10 mM),NF-kB SEAP reporter activity,[1]; agonist: LPS (TLR4) 0.1 ug/mL,0.4
same,NF-kB SEAP reporter activity,[1]; [4],0.189
same,NF-kB SEAP reporter activity,[1]; [5],0.077
same,NF-kB SEAP reporter activity,[1]; [6],0.152
Cc1cccc(Nc2nc(-c3ccncc3)cs2)c1 (library stock concentration (final ~1000-fold dilution): 10 mM),NF-kB SEAP reporter activity,[1]; agonist: LPS (TLR4) 0.1 ug/mL,2.85
same,NF-kB SEAP reporter activity,[1]; [4],1.3
same,NF-kB SEAP reporter activity,[1]; [5],0.662
same,NF-kB SEAP reporter activity,[1]; [6],1
Cc1cccc(Nc2nc(-c3ccncc3)cs2)c1,NF-kB SEAP reporter activity,[2]; [7],1.89
same,NF-kB SEAP reporter activity,[2]; [8],2.08
C=C(C)CSc1nnc2c(n1)[nH]c1ccccc12,NF-kB SEAP reporter activity,[2]; [7],0.751
same,NF-kB SEAP reporter activity,[2]; [8],1.01
C=C(C)CSc1nnc2c(n1)[nH]c1ccccc12 (library stock concentration (final ~1000-fold dilution): 10 mM),NF-kB SEAP reporter activity,[1]; agonist: LPS (TLR4) 0.1 ug/mL,1.53
same,NF-kB SEAP reporter activity,[1]; [4],0.828
same,NF-kB SEAP reporter activity,[1]; [5],0.957
same,NF-kB SEAP reporter activity,[1]; [6],1.14
CC1(C)CC(=O)c2c(C(F)(F)F)nn(-c3ccc(C(N)=O)c(NC4CCC(O)CC4)c3)c2C1 (stereo not given) (library stock concentration (final ~1000-fold dilution): 10 mM),NF-kB SEAP reporter activity,[1]; agonist: LPS (TLR4) 0.1 ug/mL,0.21
same,NF-kB SEAP reporter activity,[1]; [4],0.898
same,NF-kB SEAP reporter activity,[1]; [5],0.0968
same,NF-kB SEAP reporter activity,[1]; [6],0.392
CC1(C)CC(=O)c2c(C(F)(F)F)nn(-c3ccc(C(N)=O)c(NC4CCC(O)CC4)c3)c2C1 (stereo not given),NF-kB SEAP reporter activity,[2]; [7],0.988
same,NF-kB SEAP reporter activity,[2]; [8],0.65
Cc1ccc(NC(=S)NNc2c([N+](=O)[O-])cc(C(F)(F)F)cc2[N+](=O)[O-])cc1Cl,NF-kB SEAP reporter activity,[2]; [7],0.763
same,NF-kB SEAP reporter activity,[2]; [8],1.12
Cc1ccc(NC(=S)NNc2c([N+](=O)[O-])cc(C(F)(F)F)cc2[N+](=O)[O-])cc1Cl (library stock concentration (final ~1000-fold dilution): 10 mM),NF-kB SEAP reporter activity,[1]; agonist: LPS (TLR4) 0.1 ug/mL,0.48
same,NF-kB SEAP reporter activity,[1]; [4],0.459
same,NF-kB SEAP reporter activity,[1]; [5],0.311
same,NF-kB SEAP reporter activity,[1]; [6],0.371
COc1c(O)cc(O)c2c(=O)cc(-c3ccccc3)oc12,NF-kB SEAP reporter activity,[2]; [8],1.34
COc1c(O)cc(O)c2c(=O)cc(-c3ccccc3)oc12 (library stock concentration (final ~1000-fold dilution): 10 mM),NF-kB SEAP reporter activity,[1]; agonist: LPS (TLR4) 0.1 ug/mL,1.37
same,NF-kB SEAP reporter activity,[1]; [4],1.3
same,NF-kB SEAP reporter activity,[1]; [5],1.4
same,NF-kB SEAP reporter activity,[1]; [6],1.1
Nc1ccc(S(N)(=O)=O)cc1,NF-kB SEAP reporter activity,[2]; [7],0.983
same,NF-kB SEAP reporter activity,[2]; [8],1.05
Nc1ccc(S(N)(=O)=O)cc1 (library stock concentration (final ~1000-fold dilution): 10 mM),NF-kB SEAP reporter activity,[1]; agonist: LPS (TLR4) 0.1 ug/mL,0.899
same,NF-kB SEAP reporter activity,[1]; [4],1.01
same,NF-kB SEAP reporter activity,[1]; [5],1.01
same,NF-kB SEAP reporter activity,[1]; [6],1.17
Cc1c(-c2ccc(C(N)=O)c3[nH]c4cc(C(C)(C)O)ccc4c23)cccc1-n1cnc2ccccc2c1=O (library stock concentration (final ~1000-fold dilution): 10 mM),NF-kB SEAP reporter activity,[1]; agonist: LPS (TLR4) 0.1 ug/mL,1.25
same,NF-kB SEAP reporter activity,[1]; [4],1.1
same,NF-kB SEAP reporter activity,[1]; [5],0.537
same,NF-kB SEAP reporter activity,[1]; [6],0.833
Cc1c(-c2ccc(C(N)=O)c3[nH]c4cc(C(C)(C)O)ccc4c23)cccc1-n1cnc2ccccc2c1=O,NF-kB SEAP reporter activity,[2]; [7],1.76
same,NF-kB SEAP reporter activity,[2]; [8],1.37
O=C(CCN1CCN(C(=O)OCc2cc(Cl)cc(Cl)c2)CC1)c1ccc2[nH]c(=O)oc2c1,NF-kB SEAP reporter activity,[2]; [7],0.98
same,NF-kB SEAP reporter activity,[2]; [8],0.843
O=C(CCN1CCN(C(=O)OCc2cc(Cl)cc(Cl)c2)CC1)c1ccc2[nH]c(=O)oc2c1 (library stock concentration (final ~1000-fold dilution): 10 mM),NF-kB SEAP reporter activity,[1]; agonist: LPS (TLR4) 0.1 ug/mL,0.787
same,NF-kB SEAP reporter activity,[1]; [4],0.492
same,NF-kB SEAP reporter activity,[1]; [5],0.442
same,NF-kB SEAP reporter activity,[1]; [6],0.291
COc1ccc(-c2oc3c(CC=C(C)C)c(O)cc(O)c3c(=O)c2O)cc1 (library stock concentration (final ~1000-fold dilution): 10 mM),NF-kB SEAP reporter activity,[1]; agonist: LPS (TLR4) 0.1 ug/mL,1.46
same,NF-kB SEAP reporter activity,[1]; [4],0.962
same,NF-kB SEAP reporter activity,[1]; [5],1.06
same,NF-kB SEAP reporter activity,[1]; [6],1.39
COc1ccc(-c2oc3c(CC=C(C)C)c(O)cc(O)c3c(=O)c2O)cc1,NF-kB SEAP reporter activity,[2]; [7],0.959
same,NF-kB SEAP reporter activity,[2]; [8],1.22
